Reference: the supplement of paper PMC12632987
Whole data set: some 4,500 sequences, median “median log2 fold change of GCK-ALFA target abundance (FLAG IP / Myc IP barcode read proportion)” near 0.078, cut for the lowest 2% near -0.6. The list shows a part of the results.

B1: GBRAP_52_5947 (protein)
chain: SLEEAKELLEKALEAVLAGKREEARKILKELVENFSLETIKEAAIELAKELADADDETLEAFVELLDLLRDELIEAGVPEDEALLVEGEAAAELAKERTK
B2: GBRAP_52_6071 (protein)
chain: MEEKIEELAEKITEAIEEGDLEEALELIEEAIKELSKEEIKKLLVLTAKLVAELSEEAHEKFVDLLTEAEDLLEKAGISEEDALVIVGDAEAALAKEVAK
B3: GBRAP_166_4922 (protein)
chain: SIEEKVKEARERLKKVIEEGKADPSLTKGQITVDMAYETAEMLKSEKDRETKLAIVREGLKLAKEEGLDPRRLATLTASLYGFSDEEREEIDKIVKEILA
B4: GBRAP_52_6253 (protein)
chain: MRARMRALAERALALALAGDEAALRALLEAFAATADEEEVRLWIAEVAELARAAPLEDADAVWRLAELAAEALEAAGKPEILVDDLEAAVAAALYEVEQR
B5: GBRAP_52_6010 (protein)
chain: MREELKKKLEEALELVKEGKEEEARKLVKELVESLNDEEIELLIELLAEMAKKAKPEDFDAVWKLAEIVAEEMEELGKDEELADLLLARVAAALYEAEQA
B6: GBRAP_184_5170 (protein)
chain: MIEEFEIEVENEEEAEKKMEEIKEAVKGKKAELYVLVKAPEITEEIAKTILEKLKEIKDEGYATKITVDFEGEVDEEVMDVLVEGGKEAGINVVIALPEE
B7: GBRAP_80_6844 (protein)
chain: DEEALKKALEELEKLLPESAEDIKEIVELARSLGIPNSVITDLLNAIAELAKVDKEKAKEFIKELLEELKELLEEGDEEGAKTLIRASAGEALMEAEELE
B8: GBRAP_184_5346 (protein)
chain: MVGVIEITGEEAESDLEGVLKRVEELLADPDLDTLIIILEDVSFETAKELIERVGELAKKAGAKNVIVDVESDLNEEEIDELVEIADKYGVRLVVAIPEE
B9: GBRAP_95_7043 (protein)
chain: DDLVLAAESDAEVLETAVDLGDEEAARRAARRLLELLLELPEDKVKLDLSVESVKVIIEVAKEEFDKETAIEALKKLAKFLTNKEAKEVAEKAIEELEKE
B10: GBRAP_160_4066 (protein)
chain: EERLKKLEEEIDALIDEAIAMMENETHEERVTIARVLGGEVVLLLSEDESVSDEAEDEADAIMDATVATIEANPDLTQEEITALLTAAGEAIKEALRKHS
B11: GBRAP_52_5876 (protein)
chain: SLEEAVALLEEAVAATKAGDEEEAEAILKRIVEEFSEETIVAAVKRLAEKVLGKSLEEAEAFFETVERLADVLLEMGKSEETASLMEAIAGATLYKVEQR
B12: GBRAP_80_6837 (protein)
chain: ARARLEAALARLAELLPELAPELRAMVDRLLAAGVPVEVLADFVEALVELAELDPERAAALLREAIAEVEELLAEGDLEGAIAVIRGYAGDALVEVEELE
B13: GBRAP_160_4376 (protein)
chain: SKELEELIKEIKELLKEFEEEAKDLTPEEVRILAIGVLSEIAALVFENEAVSEETKDKIMEIIDEAIEEIKKLKDAKPEEIVAVTKEAVEKIIELIKKEI
B14: GBRAP_172_5006 (protein)
chain: DFKEIKVVIDSEDAEEAMAKIEEVIKEASKYPGAIVAIAARVKNEEDAERVEKYGEELAKKYPNITVRIFVSYDPSLNLEQIAQALLDDAILEREEEEEK
B15: GBRAP_95_7018 (protein)
chain: EDDQLAADSLAEVLETYVELGDEERARRAAVELVKVIAEDPSVQFPPDLSPEAARIVAEAAKATLSKEEAAAVLERGAASAADPEVRAIFEAALAEVRAE
B16: GBRAP_9_7112 (protein)
chain: KEELLAFALEELDEARAEVLKVAPEEEKPTVTAIFDDMRAALKAAAADPTTTLEEFLAAFEATAAAAAERIRAETSPLTAAAAESELALLVDEMEEKAEE
B17: GBRAP_160_4180 (protein)
chain: MEKVEKAEKEIEEIFKEAIEMMKGETAENRANIVDVAFGEILLLLEEEGLLTDELGEEIDEIEDEVVSTILENPDLTDEELAKLIEEAKKKIIEALKKSS
B18: GBRAP_14_3788 (protein)
chain: MEEKLALVDETKADLKRDARLIAPEKAAEIEAAIDEEMEKLKAEIKATGDAKAAVEKTKERLLKRLAEILADAPEEDRAALLAAADNEMAELELELEELD
B19: GBRAP_9_7157 (protein)
chain: MEELIEKVEEVIEDMLEEIKEVVPEEVKPAVEKRREEVKKRLEELGEDENATEEEIIEEAERLVRETLEEMKKLVDPETAKIVEAIALTAELEIEEIGEE
B20: GBRAP_52_6135 (protein)
chain: MRERLRALAREILELVRAGRLEEARALARELVESLNDEELREFAEEFARVVEELPPEELDAAATALDILVDAMEEAGVDESLISELIGKGTRAMYRVEQR
B21: GBRAP_160_4441 (protein)
chain: SPELEKAIEDFDEEAEFVKELIDEVSVEDFANFLDAEISSVALELLEEGLISEEAFDKIMEIIDEAVKTLLENPDMSIEEKKKLVDEMLEKIKEVLKEES
B22: GBRAP_139_3741 (protein)
chain: MPPEEIVAAARAAARELRDDPDALADYLVERIAAVDEETAEAITRAVMEALADLPVERILEIVDKVLERLEEAGVPEDKRDVVEAVLNGGLARHAAAEEA
B23: GBRAP_184_5256 (protein)
chain: KTLERVVEVKNVEELKAKMAEIAKEALAEKADVLILLEVEELTKEMIDALFDAIKAMKAAGYTGRVTIGITADLTEEMIDYVLEKADEAGVSVALAIPEE
B24: GBRAP_128_3251 (protein)
chain: PNPEVVKYAEEVVERLKKANPEEARKIAEEFAEYLLTISTEEAETAIEVVEKNLSKLSVEHLEILADVLREARPKFSPEKANLVAGLEVEALNEAEEKEE
B25: GBRAP_26_5453 (protein)
chain: IEELLKEFLEKLKKAAEELLDPELATLANASFENHIGLADLELEENKGNLEKMKQVVLDMKEDILEDLKDLGVPEEVLKKLKEVIDEESEKILKKLEEES
B26: GBRAP_52_6258 (protein)
chain: MREEMRKKAEEIFELVKEGKLEEARKLARELAETSNEEELEIFIDEMAKLALESKKEEIEDLEKLAELVAEELEEAGKPEEIVSLFEARVYGAIYKTSLK
B27: GBRAP_139_3757 (protein)
chain: ARAAAIEATAREFFARMQEDFEAAVKETAAYLASLSDEDRLALTEALARIAAKEGEELAERLKEALTAEVLKLTKDEDVALAIEGTMETAIAREEMRREA
B28: GBRAP_196_5419 (protein)
chain: SLVQEARKINEEAEKRLKATDKEVTVVVSTGDLERHREAVEKAIDYAKEHPDELVLLVFMDDLETALEAARYAKELAEKEGVDLVVEVASRELEEHPDEE
B29: GBRAP_83_6905 (protein)
chain: MKVVAVNITPENGAERVAEAVDIVVEEGWDLEVLVGTSPEEVAAVEDLFDRLNASGKKVNVTVAVVGRDAAAVAAAAARIRAAIAAQPNVVLEELHEEVL

Molecular target: GABARAP, O95166
Experiment: median log2 fold change of GCK-ALFA target abundance (FLAG IP / Myc IP barcode read proportion) (log2 ratio); each designed protein is fused to an ALFA-tag nanobody in HEK293 cells to bring the named protein to FLAG-tagged glucokinase (GCK); Myc marks an untargeted standard; higher = target protein stabilised (more abundant)
Details: target protein: 3xFLAG-MCP-GCK-ALFA reporter; HEK293 landing pad (RPLP)
In short: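 Sequencing of reverse-transcribed, amplified circular RNA barcodes from anti-FLAG and anti-Myc immunoprecipitates provided the readout for an ALFA-nanobody-fused binder library recombined into HEK293 landing-pad cells. Those cells were induced with 2 μg mL^−1 doxycycline, transfected with a plasmid expressing a FLAG-tagged target and a Myc-tagged standard, and lysed after 48 h. Target abundance is the per-binder median log2 ratio of FLAG to Myc barcode read proportions. Only barcodes at a proportion of ≥10^−7 in both replicates and binders with ≥3 barcodes per replicate were kept, with a 10^−6 pseudocount added before the two replicates were pooled.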

Chain of GABARAP, O95166 (O95166 whole entry, the tested form may be a part): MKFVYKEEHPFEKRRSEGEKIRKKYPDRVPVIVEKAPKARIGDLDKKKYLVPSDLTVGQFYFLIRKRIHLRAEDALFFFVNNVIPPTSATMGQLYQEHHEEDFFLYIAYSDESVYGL

B1 and B2 are within 0.2 log units of each other in “median log2 fold change” value: 0.0236 for the first, -0.155 for the second.

First: B3
Second: B4
The “median log2 fold change” value of the first is higher: 0.213 for the first, -0.0809 for the second.

B5 and B6 are within 0.2 log units of each other in “median log2 fold change” value: 0.0073 for the first, -0.0969 for the second.

B7 and B8 are within 0.2 log units of each other in “median log2 fold change” value: 0.15 for the first, 0.113 for the second.

First: B9
Second: B10
The “median log2 fold change” value of the first is higher: 0.251 for the first, -0.343 for the second.

B11 and B12 are within 0.2 log units of each other in “median log2 fold change” value: 0.0101 for the first, 0.0199 for the second.

Going from B13 to B14, the “median log2 fold change” value rises from 0.0734 to 0.552.

B15 and B16 are within 0.2 log units of each other in “median log2 fold change” value: 0.239 for the first, 0.2 for the second.

Going from B17 to B18, the “median log2 fold change” value rises from -0.491 to 0.223.

B19 and B20 are within 0.2 log units of each other in “median log2 fold change” value: -0.11 for the first, -0.218 for the second.

Compared with B21, B22 is higher in “median log2 fold change” value: -0.232 for the first, 0.168 for the second.

Compared with B23, B24 is higher in “median log2 fold change” value: -0.0129 for the first, 0.356 for the second.

B25 and B26 are within 0.2 log units of each other in “median log2 fold change” value: 0.169 for the first, 0.0746 for the second.

Going from B27 to B28, the “median log2 fold change” value falls from 0.303 to 0.0489.

In the case of B29, the “median log2 fold change” value is reported as -0.0297.
